# In all, about 18,000 sequences were measured (“TetR repression strength (sort-seq, GFP reporter)”: median about 0.23, highest 2% from about 0.68 on). This is one part of the list.
# Target: TetR (class B, Tn10) (UniProt P04483)
# Test: TetR repression strength (sort-seq, GFP reporter) (relative to tetO2 = 1); higher = stronger repression
# Conditions: E. coli
# How it was run: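 Repression strength was calculated by subtracting the read-weighted mean bin from the top bin index plus one and dividing by the unaltered operator's value. The plasmid library was low-copy in E. coli SIG10-MAX, with eight randomized operator positions between a constitutive promoter and sfGFP and constitutive TetR. Cultures grew 5 h at 37 °C in LB containing 50 µg/mL chloramphenicol before 10^6 cells were sorted by FACS into 13 fluorescence bins, each sequenced on Illumina. Three independent transformations were averaged for members having ≥30 reads in all replicates and a CV ≤0.5.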
# Chain of UniProt P04483 (P04483 whole entry): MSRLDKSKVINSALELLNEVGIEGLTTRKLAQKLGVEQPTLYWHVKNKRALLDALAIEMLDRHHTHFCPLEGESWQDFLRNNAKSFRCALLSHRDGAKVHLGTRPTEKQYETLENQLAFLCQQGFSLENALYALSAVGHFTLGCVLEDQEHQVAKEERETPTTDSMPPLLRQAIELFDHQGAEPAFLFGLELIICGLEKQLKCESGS
row,Sequence,TetR repression strength
1,TCCCACTTAGTGGTAGAGA,0.405
2,TCCCCTTTAGTGTCGGAGA,0.218
3,TCCCCAGCAGTGAGGGAGA,0.0743
4,TCCCATATAGTGAGGGAGA,0.103
5,TCCCAGTAAGTGGGGGAGA,0.196
6,TCCCTGCTAGTCGAGGAGA,0.28
7,TCCCGAGGAGTGTATGAGA,0.283
8,TCCCTTCAAGTCGCAGAGA,0.26
9,TCCCAGGAAGTGTAGGAGA,0.144
10,TCCCTCAGAGTGTGTGAGA,0.0134
11,TCCCGTCGAGTGCGCGAGA,0.193
12,TCCCGGGGAGTGCTTGAGA,0.229
13,TCCCGTTGAGTCTGCGAGA,0.387
14,TCCCCCTGAGTCAGAGAGA,0.00715
15,TCCCGCTGAGTGAGCGAGA,0.305
16,TCCCACCAAGTGGTAGAGA,0.272
17,TCCCGTGGAGTCGCGGAGA,0.168
18,TCCCTCTTAGTGGCAGAGA,0.291
19,TCCCACTAAGTCTGTGAGA,0.518
20,TCCCTTGGAGTGGGTGAGA,0.207
21,TCCCGGCGAGTTTGTGAGA,0.151
22,TCCCCCGTAGTCGGTGAGA,0.324
23,TCCCTGTTAGTACTTGAGA,0
24,TCCCGGTGAGTCAGTGAGA,0.205
25,TCCCAGGAAGTGAGTGAGA,0.141
26,TCCCGTGCAGTCTTGGAGA,0.308

row,Sequence,TetR repression strength
1,TCCCTGCAAGTGGGGGAGA,0.171
2,TCCCCTGCAGTATTGGAGA,0.294
3,TCCCTCGCAGTGAAAGAGA,0.32
4,TCCCTCTCAGTAGGGGAGA,0.133
5,TCCCATTTAGTTTGCGAGA,0.272
6,TCCCAACGAGTGGAGGAGA,0.0706
7,TCCCGGAGAGTTTGTGAGA,0.193
8,TCCCTTACAGTCGAGGAGA,0.0813
9,TCCCCAGAAGTGTATGAGA,0.0415
10,TCCCATTAAGTCGCGGAGA,0.517
11,TCCCGGGGAGTGTCGGAGA,0.265
12,TCCCTGCAAGTAGATGAGA,0.221
13,TCCCGCGGAGTGTAAGAGA,0.256
14,TCCCCAGTAGTGTCCGAGA,0.268
15,TCCCCCCCAGTCGATGAGA,0.409
16,TCCCAGCGAGTAAGAGAGA,0.0795
17,TCCCATACAGTTCGTGAGA,0.0581
18,TCCCTTCCAGTCGAGGAGA,0.219
19,TCCCCACAAGTGCAGGAGA,0.048
20,TCCCCGGTAGTGTCCGAGA,0.25
21,TCCCCCCCAGTGCCCGAGA,0.446
22,TCCCTTTGAGTTGTCGAGA,0.35
23,TCCCAACGAGTGTCCGAGA,0.258
24,TCCCGAGAAGTGGTCGAGA,0.54
25,TCCCTTAAAGTATGTGAGA,0.304
26,TCCCGTAAAGTGTAGGAGA,0.275

row,Sequence,TetR repression strength
1,TCCCGTGCAGTGAAGGAGA,0.12
2,TCCCGGCGAGTCGACGAGA,0.228
3,TCCCGATCAGTACCGGAGA,0.203
4,TCCCGAGGAGTCGAGGAGA,0.171
5,TCCCCTTGAGTCGGGGAGA,0.247
6,TCCCGGCGAGTGCGCGAGA,0.188
7,TCCCTTAGAGTACCAGAGA,0.18
8,TCCCATAGAGTACTAGAGA,0.287
9,TCCCGCTCAGTGCCAGAGA,0.801
10,TCCCGAGGAGTGACAGAGA,0.169
11,TCCCACTAAGTTGGGGAGA,0.26
12,TCCCGGTAAGTGACAGAGA,0.456
13,TCCCGTATAGTGGGTGAGA,0.0718
14,TCCCTTTCAGTTAGAGAGA,0.136
15,TCCCACCTAGTACGTGAGA,0.381
16,TCCCGCTGAGTGGGCGAGA,0.253
17,TCCCCGCAAGTGAGCGAGA,0.591
18,TCCCGGTCAGTCTGTGAGA,0.287
19,TCCCAAGGAGTGACGGAGA,0.372
20,TCCCCGCCAGTGGTGGAGA,0.0691
21,TCCCCATCAGTAGGTGAGA,0.33
22,TCCCAAAGAGTAGGTGAGA,0.213
23,TCCCTCAGAGTGGCGGAGA,0.183
24,TCCCTATTAGTGTCGGAGA,0.219
25,TCCCGAGTAGTGAGTGAGA,0.244
26,TCCCTTAAAGTTAGGGAGA,0.168

row,Sequence,TetR repression strength
1,TCCCAGGTAGTTTGAGAGA,0.242
2,TCCCTCCGAGTTGGTGAGA,0.258
3,TCCCCAGAAGTTGGGGAGA,0.208
4,TCCCTCTGAGTCAAGGAGA,0.381
5,TCCCTTCGAGTGGGCGAGA,0.274
6,TCCCTGTAAGTCGCCGAGA,0.302
7,TCCCATTGAGTTGGAGAGA,0.244
8,TCCCAACTAGTGTTCGAGA,0.266
9,TCCCTTTAAGTCGATGAGA,0.197
10,TCCCTTAGAGTGAGAGAGA,0.281
11,TCCCGATTAGTCGACGAGA,0.0975
12,TCCCTTCGAGTCCGTGAGA,0.45
13,TCCCGTGCAGTAGATGAGA,0.222
14,TCCCTGTGAGTCCTGGAGA,0.342
15,TCCCGAGTAGTTATCGAGA,0.34
16,TCCCGAGCAGTGAGTGAGA,0.507
17,TCCCCAACAGTGGCCGAGA,0.104
18,TCCCGTTAAGTGGTTGAGA,0.161
19,TCCCTGCTAGTTGCCGAGA,0.167
20,TCCCACCGAGTGGCGGAGA,0.335
21,TCCCTGCTAGTGGGCGAGA,0.115
22,TCCCCCTTAGTTGGAGAGA,0.316
23,TCCCCGTAAGTAACAGAGA,0.254
24,TCCCGATGAGTCGTTGAGA,0.249
25,TCCCGTGTAGTGACAGAGA,0.183
26,TCCCTGGTAGTCAGAGAGA,0.184

row,Sequence,TetR repression strength
1,TCCCCTTAAGTATGCGAGA,0.273
2,TCCCGGAGAGTACAGGAGA,0.218
3,TCCCCGGCAGTCGCGGAGA,0.261
4,TCCCGTCTAGTGATGGAGA,0.197
5,TCCCACTGAGTGTTAGAGA,0.242
6,TCCCCAATAGTTTCGGAGA,0.415
7,TCCCGTAGAGTGCACGAGA,0.221
8,TCCCGAGTAGTGCAGGAGA,0.301
9,TCCCGATGAGTAGTGGAGA,0.166
10,TCCCTAACAGTTCCGGAGA,0.216
11,TCCCCAAGAGTCACGGAGA,0.102
12,TCCCGCCCAGTGGGGGAGA,0.291
13,TCCCCGCCAGTAGTGGAGA,0.291
14,TCCCCCTGAGTTATGGAGA,0.328
15,TCCCAAAAAGTGGCCGAGA,0.215
16,TCCCGATAAGTCTAGGAGA,0.352
17,TCCCATGAAGTTCTAGAGA,0.431
18,TCCCTGATAGTTCGGGAGA,0.29
19,TCCCAATAAGTAGGGGAGA,0.508
20,TCCCTTTAAGTTGCGGAGA,0.245
21,TCCCCGGGAGTGGCCGAGA,0.135
22,TCCCCGGGAGTGTGGGAGA,0.207
23,TCCCGGCAAGTGCGCGAGA,0.0475
24,TCCCGGGGAGTGGTAGAGA,0.0745
25,TCCCGGAAAGTAGGGGAGA,0.188
26,TCCCAATAAGTGGGAGAGA,0.323

row,Sequence,TetR repression strength
1,TCCCTGATAGTTGAGGAGA,0.211
2,TCCCGTGGAGTGCGAGAGA,0.188
3,TCCCTGGGAGTGCTTGAGA,0.392
4,TCCCGTGTAGTATCGGAGA,0.166
5,TCCCAGGGAGTAAAGGAGA,0.188
6,TCCCCGTGAGTTGGAGAGA,0.319
7,TCCCGTGCAGTCGATGAGA,0.439
8,TCCCACGCAGTTGGGGAGA,0.0918
9,TCCCAAATAGTCGGTGAGA,0.33
10,TCCCTAGGAGTAACGGAGA,0.183
11,TCCCGTGAAGTCTTGGAGA,0.128
12,TCCCTAAAAGTGGCGGAGA,0.0467
13,TCCCACGGAGTTCATGAGA,0.197
14,TCCCCCTGAGTATCAGAGA,0.276
15,TCCCAATAAGTTTAAGAGA,0.228
16,TCCCTGGCAGTCGAAGAGA,0.189
17,TCCCGGATAGTTGAGGAGA,0.175
18,TCCCGTGAAGTGGGAGAGA,0.155
19,TCCCAAGCAGTTTTCGAGA,0.255
20,TCCCAGACAGTGTACGAGA,0.52
21,TCCCATCGAGTATGTGAGA,0.112
22,TCCCTACGAGTGGAGGAGA,0.304
23,TCCCAATAAGTAGTGGAGA,0.0218
24,TCCCGGCTAGTAGTGGAGA,0.191
25,TCCCACGGAGTGAGGGAGA,0.186
26,TCCCTGGCAGTGGTTGAGA,0.173

row,Sequence,TetR repression strength
1,TCCCATCTAGTGTGGGAGA,1.06
2,TCCCTCGGAGTCTGAGAGA,1.02
3,TCCCTATTAGTCGAAGAGA,0.089
4,TCCCTAGGAGTAAATGAGA,0.132
5,TCCCGGAAAGTCCGCGAGA,0.195
6,TCCCCTCCAGTGTAGGAGA,0.164
7,TCCCGGGTAGTGAGGGAGA,0.174
8,TCCCTAGGAGTGTACGAGA,0.238
9,TCCCTGGTAGTGTTGGAGA,0.225
10,TCCCATTCAGTTGGCGAGA,0.146
11,TCCCGCGCAGTTGATGAGA,0.117
12,TCCCAGATAGTAAGTGAGA,0.219
13,TCCCCTTTAGTCGGTGAGA,0.185
14,TCCCGGGCAGTGATCGAGA,0.561
15,TCCCCGCTAGTAGGAGAGA,0.13
16,TCCCTTGTAGTGTAGGAGA,0.174
17,TCCCTTGGAGTGATGGAGA,0.187
18,TCCCAGTTAGTCAGTGAGA,0.209
19,TCCCCTCCAGTGGATGAGA,0.0931
20,TCCCACGCAGTGAGGGAGA,0.0594
21,TCCCGGTCAGTGGACGAGA,0.132
22,TCCCTATCAGTAGACGAGA,0.525
23,TCCCGTTAAGTGGCAGAGA,0.292
24,TCCCTTCCAGTTATTGAGA,0.419
25,TCCCGAGTAGTGGGAGAGA,0.0817
26,TCCCTCCAAGTCCAAGAGA,0.622

row,Sequence,TetR repression strength
1,TCCCAATCAGTTTGGGAGA,0.168
2,TCCCGGAGAGTGGATGAGA,0.0613
3,TCCCGAGCAGTGTTTGAGA,0.309
4,TCCCAGTGAGTGTGGGAGA,0.257
5,TCCCCGGCAGTGCTGGAGA,0.174
6,TCCCAAAAAGTTGGGGAGA,0.266
7,TCCCGCAAAGTTGCTGAGA,0.183
8,TCCCTAACAGTGGCTGAGA,0.305
9,TCCCCGCAAGTAATGGAGA,0.25
10,TCCCCCCGAGTATCCGAGA,0.275
11,TCCCTCGTAGTGAGGGAGA,0.283
12,TCCCTCATAGTGCAGGAGA,0.0808
13,TCCCAGGCAGTACGTGAGA,0.295
14,TCCCGACTAGTTGGAGAGA,0.263
15,TCCCGGGTAGTCGACGAGA,0.142
16,TCCCGAGAAGTATGGGAGA,0.16
17,TCCCAAGTAGTTTTGGAGA,0.261
18,TCCCTGTGAGTGGTGGAGA,0.256
19,TCCCGTTCAGTAATGGAGA,0.409
20,TCCCCATAAGTAACGGAGA,0.122
21,TCCCCTAAAGTGCAGGAGA,0.106
22,TCCCTATGAGTTTGGGAGA,0.0296

# — a collection of fitness landscapes (doi:10.1038/s41467-024-54723-y)
